Experimental data as given in the RNAGym collection of RNA variant scans (doi:10.7554/elife.90254).
The source gives no read counts; variants with many changes may rest on few reads.

B1: LINE1-mini (parent)
chain: GGCAGAGCUCAACACAGCGUGGCAAAGUGGCUGUGGCUAGACUGCC

Variants of: B1
Experiment: self-cleavage, relative activity (ratio to wild type); higher = more cleavage; in vitro, sequencing; the parent is a self-cleaving ribozyme

Row | Variant | self-cleavage
1 | G7C C8G C31G | 0.1
2 | G7C C10A G17A A24C | 0.01
3 | G7C C13A C15G G21U G22U A41U C45U | 0.06
4 | G7C G17U C23G G44C | 0.01
5 | G7C C10G C15U A24C | 0.03
6 | G7C A16C A24G | 0
7 | G7C C23A A26G G29U | 0.26
8 | G7C G19U G30A G40A | 0.13
9 | G7A U20A C31A G44U | 0.02
10 | G7C G17U U34G | 0.07
11 | G7C G29U G35U G36C | 0.06
12 | G7C C8G G40U C42U | 0.1
13 | G7C A11G U20C | 0.02
14 | G7C G17U G19A C42U U43C | 0.06
15 | G7C C31A G36U G44C | 0.01
16 | G7C C15A G36U | 0.12
17 | G7C A12G U32C G44U | 0.05
18 | G7C G17U C31U U38A | 0.02
19 | G7C A16C A39U U43A | 0.1
20 | G7C C10G G17U G30A C31U U34C C42U | 0.02
21 | G7A G36U C46A | 0.03
22 | G7C C18G G22C | 0.02
23 | G7C A14C U34A | 0
24 | G7C C18U C31A A39C | 0.05

Row | Variant | self-cleavage
25 | G7A U9C C10A | 0.01
26 | G7C C13U G21C G22C G30C U38A | 0.03
27 | G7A U9G U28G C37U C45U | 0.02
28 | G7C C10U U20G U28C | 0.02
29 | G7C A11U G27U G33U | 0
30 | G7C A12G G40U C42A | 0.07
31 | G7C A11G G29C U32A G40C | 0.01
32 | G7C C18U G30A G36C | 0.32
33 | G7C C31U C37U | 0.02
34 | G7C C8G U28A C46U | 0.2
35 | G7C G19U G27U U43A | 0.01
36 | G7C C8U C15A C18A A26G | 0.16
37 | G7A G33U U43G | 0.2
38 | G7C A14C U20C A41G C42G | 0.02
39 | G7C A11G C23U G40U C46A | 0.01
40 | G7A U9C C10G G27U A41C | 0.02
41 | G7C A12U U38C | 0.13
42 | G7A G40C C46G | 0.12
43 | G7C C10A A11C C13G U20G C31A C45A | 0.01
44 | G7C C8G A25C G40A | 0.09
45 | G7C C23U A25C | 0.06
46 | G7C C10G A11G G21U C46U | 0.01
47 | G7C A14C A24U C46A | 0.07
48 | G7C C31G G40C | 0.02

Row | Variant | self-cleavage
49 | G7C G22A C42G | 0.03
50 | G7C G30A U38A C46G | 0.04
51 | G7C A11U G40U | 0.01
52 | G7A G33U U34C U43C | 0.07
53 | G7C G21A G27U | 0.09
54 | G7C G21A G27A | 0.03
55 | G7C A24U G27U A41C | 0.04
56 | G7A U20A G21U | 0.26
57 | G7C C10U C18G G40A | 0.02
58 | G7A U9A C37U A41G | 0.06
59 | G7C C8A U20G A39G | 0.09
60 | G7C G30A A39G | 0.03
61 | G7A U9G G35U U43A | 0.03
62 | G7C C18A U43A C45A | 0.01
63 | G7C C10A A25U G36C | 0.02
64 | G7C C13A C18A A41C C42U G44C C46A | 0.01
65 | G7C G19A U32C C45A | 0.02
66 | G7C G19U U32C | 0.06
67 | G7A U9C C10U G22U C23A | 0
68 | G7A U20C G40A U43C | 0.06
69 | G7C G36U G44A | 0.07
70 | G7C G17C C46U | 0.08
71 | G7C C8A C37U | 0.04
72 | G7C C8U C13A A16C | 0.04

Row | Variant | self-cleavage
73 | G7C C8A C15G A16U U20A G40A | 0.03
74 | G7C C8A G22U G40U | 0.27
75 | G7A U20C G22C | 0.09
76 | G7C C10U G27C | 0.03
77 | G7C C8A G35U | 0.39
78 | G7C G19C U38A | 0.01
79 | G7C C10U G17U U32G G36C | 0.03
80 | G7C G30U C37A | 0.1
81 | G7A U32A U38A | 0.08
82 | G7A U9C C15A A24C C31A | 0.01
83 | G7C G17C G40A | 0.1
84 | G7A U34C A41C C42G | 0.11
85 | G7C G36C C37U U43G C46U | 0.03
86 | G7C C15U G21U U43C | 0.39
87 | G7C C8U G17C G22C A25G G29C | 0.06
88 | G7C A11C G17C U20A G30U U32C U43G | 0
89 | G7A U9G C15U | 0.24
90 | G7C C23A G44U C45A | 0.09
91 | G7A U9A A12C U20A G27C G40A A41C | 0.02
92 | G7C G30A U34C G44A | 0.05
93 | G7C G17C A25U | 0.06
94 | G7C A16U A25U | 0.04
95 | G7A U20C G22C C37G | 0.01
96 | G7C G29U A41U | 0.25

Row | Variant | self-cleavage
97 | G7C G27A G29U | 0.08
98 | G7C A39U G44A | 0.11
99 | G7A U20A C37G | 0.06
100 | G7C C18G A25C U32A C42U | 0.01
101 | G7C G22A A26C | 0.16
102 | G7C A12G G22A | 0.02
103 | G7C G27U G33C | 0.02
104 | G7C C23U U38C | 0.17
105 | G7C C10A G22U A41C | 0
106 | G7C A11G G21U C23U | 0.03
107 | G7C G17A A24U | 0.08
108 | G7C C8A A24U C42U | 0.42
109 | G7C C10G A11U G17A U32C G35U U38C | 0.02
110 | G7C A26C G36A | 0.08
111 | G7A U9A A16C C42U | 0.1
112 | G7C A24G U38A | 0.01
113 | G7C C15A G33C A39G | 0.05
114 | G7C G33U A39G | 0.01
115 | G7C G44U C46A | 0.09
116 | G7C G19A U20G G36U U38C | 0.03
117 | G7C C23A C37U A39C C46U | 0.05
118 | G7C G21C G33C | 0.04
119 | G7C G21A C23A G30U G35C G40C | 0.02
120 | G7C C10U U20A G22C G27A G29A | 0.04

Row | Variant | self-cleavage
121 | G7C C13G G33C | 0.03
122 | G7C A11C U34A | 0.01
123 | G7C G36C A39C | 0.09
124 | G7C A25C G40U C45A | 0.02
125 | G7C C10A C18U G19A | 0
126 | G7C G27C G44A | 0.06
127 | G7C C8G A14G C15U G21C C23G | 0.09
128 | G7C G22A G27C G40C | 0.04
129 | G7C C13A G22U G29U C31G | 0.11
130 | G7C C10U A25G A26G C31U | 0.01
131 | G7C G29U G40U | 0.32
132 | G7C A14U A16G G40U G44C | 0.01
133 | G7C G33A G35A | 0.5
134 | G7C A26U U32A G36A | 0.06
135 | G7C C8G G29A G40U | 0.07
136 | G7C G30A G33U | 0.06
137 | G7A U32G C42U C45G C46U | 0.05
138 | G7A U34C A41G | 0.32
139 | G7C A11G A41U | 0.05
140 | G7C G27U C37U | 0.02
141 | G7A G33A G44A | 0.23
142 | G7C C18U U32C C37A | 0.02
143 | G7C A14G G44A | 0.12
144 | G7C C8G C13U G21C G35C U38C | 0.03

Row | Variant | self-cleavage
145 | G7A U28G G30A C31U C46G | 0.02
146 | G7C C8U C46A | 0.14
147 | G7C G17A G30C C37G C42U | 0.04
148 | G7C G21C A24G | 0.07
149 | G7C A39C U43G C45A | 0.07
150 | G7A U9G U28G | 0.07
151 | G7C A11G C31U G33A C37A G40C C46A | 0.01
152 | G7C A14C U28A G30U G44C | 0.02
153 | G7C G19U G36U | 0.03
154 | G7C A11U U20C A26C | 0.01
155 | G7C A16U C23G A26U G30U C42G | 0.05
156 | G7C A25C G33U G36U | 0.03
157 | G7C C8A U20A C37G U38G C46U | 0.02
158 | G7C A12U G19A | 0.61
159 | G7C G22U G35U C42G | 0.12
160 | G7A U20G C37A A39G G40U | 0.14
161 | G7C G17A G22U A24C U43G | 0.01
162 | G7C G21U A25G U32C | 0.05
163 | G7A U9A C31U | 0.04
164 | G7A U20G U38A C42A | 0.09
165 | G7C C10A A16G C18U A26U U32A A39U | 0
166 | G7A U9G C13G C31A U34A G35A C42G | 0
167 | G7C G17A G40A | 0.07
